# Out of some 2,000 compounds screened, about 110 (5.5%) showed an effect of 50% or more. The list shows a part of the results.
# Molecular target: Genome polyprotein (dengue virus type 2) (UniProt P29990)
# [1] = Thailand/16681/1984, Concentration 25.0 uM, Number of replicates 1.0
compound,measurement,setting,value
CCn1ccnc(N2CC[C@@H](CC#N)C2)c1=O,inhibition,"Thailand/16681/1984, Concentration 49.5 uM, Number of replicates 2.0, Standard deviation 0.07238670655527837 %",6.13%
same,inhibition,"Thailand/16681/1984, Concentration 99.01 uM, Number of replicates 2.0, Standard deviation 0.5796358295014711 %",13.9%
same,inhibition,"Thailand/16681/1984, Concentration 198.0 uM, Number of replicates 2.0, Standard deviation 0.36138798396926686 %",24.9%
Cc1cc(CO)c2cccc(NC(=O)Cc3nnc(C)[nH]3)c2n1,inhibition,"Thailand/16681/1984, Concentration 49.95 uM, Number of replicates 2.0, Standard deviation 1.6214486049767967 %",10.4%
same,inhibition,"Thailand/16681/1984, Concentration 99.9 uM, Number of replicates 2.0, Standard deviation 3.3969341631920567 %",17.9%
CC(C)Nc1nc2ccc(C(=O)Nc3nc4ccc(F)cc4[nH]3)cc2[nH]1,inhibition,"Thailand/16681/1984, Concentration 49.5 uM, Number of replicates 2.0, Standard deviation 1.1088949771416101 %",-0.826%
same,inhibition,"Thailand/16681/1984, Concentration 99.01 uM, Number of replicates 2.0, Standard deviation 1.531680896343838 %",0.77%
same,inhibition,"Thailand/16681/1984, Concentration 198.0 uM, Number of replicates 2.0, Standard deviation 0.7658399318730248 %",10.6%
Cc1cc(CO)c2cccc(Cc3ccccc3C(=O)NCCN3CCOCC3)c2n1,inhibition,"Thailand/16681/1984, Concentration 49.95 uM, Number of replicates 2.0, Standard deviation 0.8235750873336125 %",-0.922%
same,inhibition,"Thailand/16681/1984, Concentration 99.9 uM, Number of replicates 2.0, Standard deviation 1.065042095325802 %",4.91%
COc1ccccc1N1CCN(C(=O)C2CCN(c3ccc(C=O)cc3)CC2)CC1,inhibition,[1],12.1%
CN(Cc1csc(-c2ccccc2)n1)C(=O)C1CCN(c2ccc(C=O)cc2)CC1,inhibition,[1],12.4%
O=C1Nc2c(Br)cccc2C[C@@]12CCCN2,inhibition,"Thailand/16681/1984, Concentration 49.5 uM, Number of replicates 2.0, Standard deviation 0.4152261996696888 %",-1.46%
same,inhibition,"Thailand/16681/1984, Concentration 99.01 uM, Number of replicates 2.0, Standard deviation 0.41139918153120264 %",-1.6%
same,inhibition,"Thailand/16681/1984, Concentration 198.0 uM, Number of replicates 2.0, Standard deviation 0.7673074219179014 %",-0.252%
O=Cc1ccc(N2CCC(C(=O)Nc3ccc(OCc4ccccn4)c(Cl)c3)CC2)cc1,inhibition,[1],12.2%
C#CCN(Cc1ccc(C)cc1)C(=O)C1CCN(c2ccc(C=O)cc2)CC1,inhibition,[1],13.9%
Cc1cccc(C)c1OC[C@H](C)NC(=O)C1CCN(c2ccc(C=O)cc2)CC1,inhibition,[1],6.86%
O=C1NCc2ccccc2C12CCN(C1CS(=O)(=O)C1)CC2,inhibition,"Thailand/16681/1984, Concentration 49.5 uM, Number of replicates 2.0, Standard deviation 0.8986864822779989 %",-0.528%
same,inhibition,"Thailand/16681/1984, Concentration 99.01 uM, Number of replicates 2.0, Standard deviation 0.5142855155974841 %",-0.402%
same,inhibition,"Thailand/16681/1984, Concentration 198.0 uM, Number of replicates 2.0, Standard deviation 1.1804213295415233 %",-0.795%
O=Cc1ccc(N2CCC(C(=O)NC[C@H](O)COc3ccccc3)CC2)cc1,inhibition,[1],13.5%
COc1cc(NC(=O)C2CCN(c3ccc(C=O)cc3)CC2)cc(OC)c1,inhibition,[1],16%
O=Cc1ccc(N2CCC(C(=O)N[C@@H]3CCCN(Cc4ccccc4)C3)CC2)cc1,inhibition,[1],13.3%
COc1ccc2ccccc2c1CCNC(=O)C1CCN(c2ccc(C=O)cc2)CC1,inhibition,[1],15.9%
C[C@@H](Cc1ccc(O)cc1)NC(=O)C1CCN(c2ccc(C=O)cc2)CC1,inhibition,[1],12.7%
COc1cc(CS(=O)(=O)CCCC(F)(F)F)nc(N2CCNCC2)n1,inhibition,"Thailand/16681/1984, Concentration 49.5 uM, Number of replicates 2.0, Standard deviation 0.8484998484591365 %",-2.49%
same,inhibition,"Thailand/16681/1984, Concentration 99.01 uM, Number of replicates 2.0, Standard deviation 0.7897198726239637 %",-1.19%
same,inhibition,"Thailand/16681/1984, Concentration 198.0 uM, Number of replicates 2.0, Standard deviation 1.3519394442089752 %",0.271%
c1ccc2c([C@H]3CCN(C[C@H]4CCOC4)C3)c[nH]c2c1,inhibition,"Thailand/16681/1984, Concentration 49.5 uM, Number of replicates 2.0, Standard deviation 1.7417878041316477 %",-0.7%
same,inhibition,"Thailand/16681/1984, Concentration 99.01 uM, Number of replicates 2.0, Standard deviation 0.9998751017735912 %",1.19%
same,inhibition,"Thailand/16681/1984, Concentration 198.0 uM, Number of replicates 2.0, Standard deviation 1.077372240151361 %",3.4%
O=C(NCc1nc(CO)cs1)[C@]1(c2ccc(F)cc2)CCCNC1,inhibition,"Thailand/16681/1984, Concentration 49.5 uM, Number of replicates 2.0, Standard deviation 0.7429134792759478 %",-2.21%
same,inhibition,"Thailand/16681/1984, Concentration 99.01 uM, Number of replicates 2.0, Standard deviation 0.3053293037018969 %",-1.85%
same,inhibition,"Thailand/16681/1984, Concentration 198.0 uM, Number of replicates 2.0, Standard deviation 0.2612443323622294 %",-1.1%
Cc1cc(CO)c2cccc(NC(=O)c3cc(C(F)F)nn3C)c2n1,inhibition,"Thailand/16681/1984, Concentration 49.95 uM, Number of replicates 2.0, Standard deviation 2.6240439065001295 %",9.2%
same,inhibition,"Thailand/16681/1984, Concentration 99.9 uM, Number of replicates 2.0, Standard deviation 2.105181135153063 %",15.2%
CN(C)Cc1ccc(C(=O)Nc2cc(Cl)cc(C(=O)NC(C)(C)CO)c2)[nH]1,inhibition,"Thailand/16681/1984, Concentration 49.5 uM, Number of replicates 2.0, Standard deviation 0.5051399787428742 %",0.205%
same,inhibition,"Thailand/16681/1984, Concentration 99.01 uM, Number of replicates 2.0, Standard deviation 1.5521383022614499 %",0.663%
same,inhibition,"Thailand/16681/1984, Concentration 198.0 uM, Number of replicates 2.0, Standard deviation 0.5964116239079592 %",5.64%
NC(=O)c1ccc(CNC(=O)c2ccc(OCc3ccccc3)cc2)cc1,inhibition,"Thailand/16681/1984, Concentration 49.5 uM, Number of replicates 2.0, Standard deviation 3.419970703357444 %",-0.579%
same,inhibition,"Thailand/16681/1984, Concentration 99.01 uM, Number of replicates 2.0, Standard deviation 3.9573061855257445 %",-0.365%
same,inhibition,"Thailand/16681/1984, Concentration 198.0 uM, Number of replicates 2.0, Standard deviation 3.324054675683989 %",-1.19%
O=Cc1ccc(N2CCC(C(=O)NC3CCN(C(=O)Nc4ccccc4)CC3)CC2)cc1,inhibition,[1],13%

# Reference: ChEMBL document CHEMBL5606460, “ASAP - DENV-2 NS2B-NS3 protease fluorescence single point” (2024)
